Assay results taken from paper PMC5062570 (Nature Communications, 2016).
Where “and” joins values, the source holds several entries; their conditions need not be identical. Equal entries are not always repeated.

Tests used:
[1] = biological target: PF-7802-labelled proteins in ARPE-19 cells (Homo sapiens, UniProt P06733); settings: P06733 ENO1 Alpha-enolase
[2] = biological target: PF-7802-labelled proteins in ARPE-19 cells (Homo sapiens, UniProt P08582); settings: protein MFI2 Melanotransferrin (P08582); replicates in separate columns
[3] = biological target: PF-7802-labelled proteins in ARPE-19 cells (Homo sapiens, UniProt P08238)
[4] = biological target: PF-7802-labelled proteins in ARPE-19 cells (Homo sapiens, UniProt P0CG48); settings: UBC Polyubiquitin-C (P0CG48)
[5] = biological target: PF-7802-labelled proteins in ARPE-19 cells (Homo sapiens, UniProt P50897); settings: protein PPT1 Palmitoyl-protein thioesterase 1, P50897
[6] = biological target: PF-7802-labelled proteins in ARPE-19 cells (Homo sapiens, UniProt Q9HCS7); settings: protein XAB2 Pre-mRNA-splicing factor SYF1 (Q9HCS7); replicate R1
[7] = biological target: PF-7802-labelled proteins in ARPE-19 cells (Homo sapiens, UniProt P11142)
[8] = biological target: PF-7802-labelled proteins in ARPE-19 cells (Homo sapiens, UniProt Q00610)
[9] = biological target: PF-7802-labelled proteins in ARPE-19 cells (Homo sapiens, UniProt Q01518); settings: protein CAP1 Adenylyl cyclase-associated protein 1 (Q01518)
[10] = biological target: PF-7802-labelled proteins in ARPE-19 cells (Homo sapiens, UniProt O75915); settings: protein ARL6IP5 PRA1 family protein 3 (O75915)
[11] = biological target: PF-7802-labelled proteins in ARPE-19 cells (Homo sapiens, UniProt Q9H2U2); settings: protein PPA2 Inorganic pyrophosphatase 2, mitochondrial, Q9H2U2
[12] = biological target: PF-7802-labelled proteins in ARPE-19 cells (Homo sapiens, UniProt P0DTE8); settings: protein AMY1C Alpha-amylase 1 (P04745)
[13] = biological target: PF-7802-labelled proteins in ARPE-19 cells (Homo sapiens, UniProt Q96IX5)
[14] = biological target: PF-7802-labelled proteins in ARPE-19 cells (Homo sapiens, UniProt P07996); settings: THBS1 Thrombospondin-1 (P07996)
[15] = biological target: PF-7802-labelled proteins in ARPE-19 cells (Homo sapiens, UniProt O43790); settings: protein KRT86 Keratin, type II cuticular Hb6 (O43790); replicates in separate columns
[16] = biological target: PF-7802-labelled proteins in ARPE-19 cells (Homo sapiens, UniProt P04080); settings: protein CSTB Cystatin-B (P04080)
[17] = biological target: PF-7802-labelled proteins in ARPE-19 cells (Homo sapiens, UniProt P05556); settings: protein ITGB1 Integrin beta-1 (P05556); one column per replicate
[18] = biological target: PF-7802-labelled proteins in ARPE-19 cells (Homo sapiens, UniProt P62081); settings: protein RPS7 40S ribosomal protein S7, P62081
[19] = biological target: PF-7802-labelled proteins in ARPE-19 cells (Homo sapiens, UniProt Q9NSB2); settings: protein KRT84 Keratin, type II cuticular Hb4 (Q9NSB2); one column per replicate
[20] = biological target: PF-7802-labelled proteins in ARPE-19 cells (Homo sapiens, UniProt P55209); settings: protein NAP1L1 Nucleosome assembly protein 1-like 1 (P55209); replicates in separate columns
[21] = biological target: PF-7802-labelled proteins in ARPE-19 cells (Homo sapiens, UniProt Q9UII2); settings: protein ATPIF1 ATPase inhibitor, mitochondrial (Q9UII2)
[22] = biological target: PF-7802-labelled proteins in ARPE-19 cells (Homo sapiens, UniProt Q8N4C6); settings: protein NIN Ninein (Q8N4C6); replicates in separate columns
[23] = biological target: PF-7802-labelled proteins in ARPE-19 cells (Homo sapiens, UniProt Q14247); settings: protein CTTN Src substrate cortactin (Q14247)
[24] = biological target: PF-7802-labelled proteins in ARPE-19 cells (Homo sapiens, UniProt O00231); settings: protein PSMD11 26S proteasome non-ATPase regulatory subunit 11, O00231
[25] = biological target: PF-7802-labelled proteins in ARPE-19 cells (Homo sapiens, UniProt O14983); settings: protein ATP2A1 Sarcoplasmic/endoplasmic reticulum calcium ATPase 1 (O14983)
[26] = biological target: PF-7802-labelled proteins in ARPE-19 cells (Homo sapiens, UniProt Q03252); settings: protein LMNB2 Lamin-B2 (Q03252); replicates in separate columns
[27] = biological target: PF-7802-labelled proteins in ARPE-19 cells (Homo sapiens, UniProt P13674); settings: protein P4HA1 Prolyl 4-hydroxylase subunit alpha-1 (P13674); replicates in separate columns

Sequence of UniProt P11142 (P11142 whole entry): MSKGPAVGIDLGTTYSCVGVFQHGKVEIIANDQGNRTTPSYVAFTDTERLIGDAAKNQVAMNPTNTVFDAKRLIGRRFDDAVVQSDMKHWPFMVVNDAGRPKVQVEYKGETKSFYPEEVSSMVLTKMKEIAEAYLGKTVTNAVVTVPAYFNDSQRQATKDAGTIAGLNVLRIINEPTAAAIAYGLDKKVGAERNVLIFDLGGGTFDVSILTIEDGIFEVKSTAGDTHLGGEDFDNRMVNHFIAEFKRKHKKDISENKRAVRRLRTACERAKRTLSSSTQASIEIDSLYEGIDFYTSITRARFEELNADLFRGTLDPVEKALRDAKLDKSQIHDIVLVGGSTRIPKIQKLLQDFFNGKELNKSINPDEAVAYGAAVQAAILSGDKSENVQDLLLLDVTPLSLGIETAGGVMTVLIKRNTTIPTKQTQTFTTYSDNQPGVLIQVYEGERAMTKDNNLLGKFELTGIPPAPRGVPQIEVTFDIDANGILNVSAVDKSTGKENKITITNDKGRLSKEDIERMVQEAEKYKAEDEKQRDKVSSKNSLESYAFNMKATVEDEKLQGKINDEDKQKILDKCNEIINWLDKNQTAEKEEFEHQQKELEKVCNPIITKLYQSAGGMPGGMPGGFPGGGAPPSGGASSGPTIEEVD
Sequence of UniProt Q00610 (Q00610 whole entry): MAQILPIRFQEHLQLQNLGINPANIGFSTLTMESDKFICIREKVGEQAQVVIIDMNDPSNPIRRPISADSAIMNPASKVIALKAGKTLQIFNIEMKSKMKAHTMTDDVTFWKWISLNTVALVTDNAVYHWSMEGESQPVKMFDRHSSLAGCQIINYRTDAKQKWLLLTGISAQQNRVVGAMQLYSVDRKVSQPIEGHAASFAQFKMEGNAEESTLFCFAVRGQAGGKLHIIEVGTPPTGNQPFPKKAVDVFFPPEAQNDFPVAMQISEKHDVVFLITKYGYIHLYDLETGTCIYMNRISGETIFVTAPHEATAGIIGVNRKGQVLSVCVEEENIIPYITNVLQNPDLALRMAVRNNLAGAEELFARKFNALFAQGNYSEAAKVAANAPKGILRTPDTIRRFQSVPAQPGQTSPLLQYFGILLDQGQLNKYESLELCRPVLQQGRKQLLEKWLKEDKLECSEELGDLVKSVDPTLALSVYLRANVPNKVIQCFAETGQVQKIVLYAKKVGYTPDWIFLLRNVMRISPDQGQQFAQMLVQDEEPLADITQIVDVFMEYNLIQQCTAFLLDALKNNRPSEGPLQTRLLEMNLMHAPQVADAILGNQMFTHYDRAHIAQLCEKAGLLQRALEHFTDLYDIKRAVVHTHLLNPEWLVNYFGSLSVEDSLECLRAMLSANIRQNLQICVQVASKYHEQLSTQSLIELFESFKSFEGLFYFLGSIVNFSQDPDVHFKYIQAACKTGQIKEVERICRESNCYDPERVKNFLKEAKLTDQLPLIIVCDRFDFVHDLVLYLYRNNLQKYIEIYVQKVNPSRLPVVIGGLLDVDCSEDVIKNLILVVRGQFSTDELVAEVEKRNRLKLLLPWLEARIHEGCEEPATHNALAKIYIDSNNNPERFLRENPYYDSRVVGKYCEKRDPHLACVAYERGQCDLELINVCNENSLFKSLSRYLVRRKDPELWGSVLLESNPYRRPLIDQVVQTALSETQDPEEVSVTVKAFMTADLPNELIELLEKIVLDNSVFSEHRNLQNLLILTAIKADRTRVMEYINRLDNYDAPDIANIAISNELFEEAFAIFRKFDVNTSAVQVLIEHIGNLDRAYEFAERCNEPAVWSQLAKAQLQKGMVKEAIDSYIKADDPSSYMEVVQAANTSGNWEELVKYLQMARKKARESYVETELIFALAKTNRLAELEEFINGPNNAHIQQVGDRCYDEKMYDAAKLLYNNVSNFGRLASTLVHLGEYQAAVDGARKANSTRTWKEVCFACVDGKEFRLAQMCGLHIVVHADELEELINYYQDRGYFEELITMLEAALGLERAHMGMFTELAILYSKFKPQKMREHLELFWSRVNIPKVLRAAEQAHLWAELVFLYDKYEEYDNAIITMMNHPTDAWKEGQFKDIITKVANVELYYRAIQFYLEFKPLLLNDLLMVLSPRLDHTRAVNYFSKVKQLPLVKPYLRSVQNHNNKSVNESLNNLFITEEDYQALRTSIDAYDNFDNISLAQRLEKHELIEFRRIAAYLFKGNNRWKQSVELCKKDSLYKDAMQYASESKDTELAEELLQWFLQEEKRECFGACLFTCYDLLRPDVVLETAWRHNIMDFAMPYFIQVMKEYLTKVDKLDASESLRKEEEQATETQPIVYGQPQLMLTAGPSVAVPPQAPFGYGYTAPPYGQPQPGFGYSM
Sequence of UniProt Q01518 (Q01518 whole entry): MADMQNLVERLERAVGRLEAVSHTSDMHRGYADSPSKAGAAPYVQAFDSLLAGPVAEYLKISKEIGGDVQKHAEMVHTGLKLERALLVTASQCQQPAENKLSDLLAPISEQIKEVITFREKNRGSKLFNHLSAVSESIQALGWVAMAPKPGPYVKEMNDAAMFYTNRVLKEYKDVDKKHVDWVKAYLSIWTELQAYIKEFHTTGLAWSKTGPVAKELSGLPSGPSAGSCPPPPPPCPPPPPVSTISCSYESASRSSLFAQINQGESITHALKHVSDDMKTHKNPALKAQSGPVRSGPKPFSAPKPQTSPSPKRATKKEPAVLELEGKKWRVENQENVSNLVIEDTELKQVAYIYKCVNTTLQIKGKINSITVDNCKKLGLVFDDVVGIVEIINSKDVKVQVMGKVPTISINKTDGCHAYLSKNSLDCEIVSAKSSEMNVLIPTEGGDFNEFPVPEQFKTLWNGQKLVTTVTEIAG
Sequence of UniProt P08238 (P08238 whole entry): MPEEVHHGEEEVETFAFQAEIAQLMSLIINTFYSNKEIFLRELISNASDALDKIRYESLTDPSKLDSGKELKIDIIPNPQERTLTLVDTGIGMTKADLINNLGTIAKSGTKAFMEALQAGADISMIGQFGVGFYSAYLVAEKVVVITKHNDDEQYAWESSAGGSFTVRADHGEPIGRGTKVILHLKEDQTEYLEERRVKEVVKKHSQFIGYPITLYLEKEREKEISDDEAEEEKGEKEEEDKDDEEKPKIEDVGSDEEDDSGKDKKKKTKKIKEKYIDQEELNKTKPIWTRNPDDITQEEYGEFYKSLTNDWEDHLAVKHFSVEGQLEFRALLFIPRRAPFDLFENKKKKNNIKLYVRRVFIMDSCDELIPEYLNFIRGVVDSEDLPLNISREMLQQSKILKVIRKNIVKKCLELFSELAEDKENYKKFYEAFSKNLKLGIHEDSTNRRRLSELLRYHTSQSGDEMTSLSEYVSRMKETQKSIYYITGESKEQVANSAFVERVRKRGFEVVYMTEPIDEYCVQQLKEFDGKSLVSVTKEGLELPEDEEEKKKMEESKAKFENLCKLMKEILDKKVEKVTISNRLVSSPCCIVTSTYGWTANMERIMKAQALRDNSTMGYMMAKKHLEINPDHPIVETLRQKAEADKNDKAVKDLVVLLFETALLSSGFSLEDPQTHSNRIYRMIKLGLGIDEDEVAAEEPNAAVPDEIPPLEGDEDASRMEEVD
Sequence of UniProt P0CG48 (P0CG48 whole entry): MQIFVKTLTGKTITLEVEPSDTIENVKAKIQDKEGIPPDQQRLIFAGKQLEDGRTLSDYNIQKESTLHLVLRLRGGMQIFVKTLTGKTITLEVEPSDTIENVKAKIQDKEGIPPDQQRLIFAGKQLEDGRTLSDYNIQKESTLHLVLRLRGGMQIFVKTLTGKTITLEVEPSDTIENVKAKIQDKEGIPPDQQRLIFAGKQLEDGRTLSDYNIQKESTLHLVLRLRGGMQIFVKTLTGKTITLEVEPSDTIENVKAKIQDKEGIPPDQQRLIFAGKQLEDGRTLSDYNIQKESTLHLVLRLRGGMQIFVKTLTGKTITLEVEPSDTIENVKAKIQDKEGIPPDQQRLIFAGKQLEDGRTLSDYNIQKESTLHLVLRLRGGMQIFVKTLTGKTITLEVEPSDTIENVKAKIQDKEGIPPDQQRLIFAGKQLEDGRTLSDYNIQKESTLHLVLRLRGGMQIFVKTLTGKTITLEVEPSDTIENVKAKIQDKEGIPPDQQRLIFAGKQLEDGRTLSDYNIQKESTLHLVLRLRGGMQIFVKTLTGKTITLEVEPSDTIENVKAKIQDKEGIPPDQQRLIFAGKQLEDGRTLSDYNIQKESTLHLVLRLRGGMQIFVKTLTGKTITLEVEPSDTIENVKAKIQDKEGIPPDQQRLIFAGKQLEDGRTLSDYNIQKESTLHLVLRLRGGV
Sequence of UniProt O00231 (O00231 whole entry): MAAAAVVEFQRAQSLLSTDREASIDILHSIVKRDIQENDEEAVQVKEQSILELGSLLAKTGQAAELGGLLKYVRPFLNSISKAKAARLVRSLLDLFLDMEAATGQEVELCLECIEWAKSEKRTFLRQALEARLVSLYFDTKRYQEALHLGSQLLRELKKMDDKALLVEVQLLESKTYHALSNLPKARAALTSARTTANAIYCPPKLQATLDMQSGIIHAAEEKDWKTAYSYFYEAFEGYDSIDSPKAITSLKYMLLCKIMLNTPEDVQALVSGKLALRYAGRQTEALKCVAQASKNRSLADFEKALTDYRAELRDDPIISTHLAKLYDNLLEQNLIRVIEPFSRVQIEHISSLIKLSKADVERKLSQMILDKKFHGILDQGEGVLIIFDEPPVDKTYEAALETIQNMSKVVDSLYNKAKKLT
Sequence of UniProt O75915 (O75915 whole entry): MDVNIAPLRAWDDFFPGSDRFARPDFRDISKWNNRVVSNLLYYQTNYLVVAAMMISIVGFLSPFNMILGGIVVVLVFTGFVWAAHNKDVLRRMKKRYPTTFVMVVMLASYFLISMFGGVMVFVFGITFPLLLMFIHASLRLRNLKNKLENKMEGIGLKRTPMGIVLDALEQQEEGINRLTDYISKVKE
Sequence of UniProt P04080 (P04080 whole entry): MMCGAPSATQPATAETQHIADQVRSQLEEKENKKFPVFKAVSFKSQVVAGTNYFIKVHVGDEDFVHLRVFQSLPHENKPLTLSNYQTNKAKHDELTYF
Sequence of UniProt Q96IX5 (Q96IX5 whole entry): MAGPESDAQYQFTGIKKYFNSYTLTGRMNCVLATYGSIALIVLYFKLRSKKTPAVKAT

## CNC1CCN(C(=O)C[C@@H](Cc2ccccc2)C(=O)N[C@@H](CSC)C(=O)N[C@@H](CC2CCCCC2)[C@@H](O)C(=O)OC(C)C)CC1 [CP-108671, reference compound]
[1]
  SILAC ratio (DMSO/CP-108671): 0.50
[2]
  Median SILAC Ratio (Heavy/Light): 0.8641
[3]; P08238 HSP90AB1 Heat shock protein HSP 90-beta
  SILAC ratio (DMSO/CP-108671): 0.52
[3]; protein HSP90AB1 Heat shock protein HSP 90-beta (P08238), one column per replicate
  Median SILAC Ratio (Heavy/Light): 1.922
[4]
  Median SILAC Ratio (Heavy/Light): 1.414 and 1.581
[5]
  Median SILAC Ratio (Heavy/Light): 0.8353
[6]
  Median SILAC Ratio (Heavy/Light): 0.9744
[7]; P11142 HSPA8 Heat shock cognate 71 kDa protein
  SILAC ratio (DMSO/CP-108671): 0.70
[7]; protein HSPA8 Heat shock cognate 71 kDa protein (P11142), one column per replicate
  Median SILAC Ratio (Heavy/Light): 1.431 and 0.8416
[8]; Q00610 CLTC Clathrin heavy chain 1
  SILAC ratio (DMSO/CP-108671): 0.76
[8]; protein CLTC Clathrin heavy chain 1 (Q00610)
  Median SILAC Ratio (Heavy/Light): 1.312

## Cc1cc([C@H]2C[C@H]3[C@@H](C)SC(N)=N[C@@]3(c3ccc(F)cc3F)CO2)on1 [PF-9283]
[9]
  Median SILAC Ratio (Heavy/Light): 1.107 and 1.058
[10]
  Median SILAC Ratio (Heavy/Light): 0.1602
[11]
  Median SILAC Ratio (Heavy/Light): 1.3861
[12]
  Median SILAC Ratio (Heavy/Light): 0.6384
[13]
  Median SILAC Ratio (Heavy/Light): 0.7497
[14]
  Median SILAC Ratio (Heavy/Light): 0.5961
[15]
  Median SILAC Ratio (Heavy/Light): 115.765
[16]
  Median SILAC Ratio (Heavy/Light): 56.1629
[17]
  Median SILAC Ratio (Heavy/Light): 1.31 and 0.6734 and 0.9023
[18]
  Median SILAC Ratio (Heavy/Light): 1.536
[19]
  Median SILAC Ratio (Heavy/Light): 10.761
[20]
  Median SILAC Ratio (Heavy/Light): 2.407
[21]
  Median SILAC Ratio (Heavy/Light): 0.8215
[22]
  Median SILAC Ratio (Heavy/Light): 0.5867
[23]
  Median SILAC Ratio (Heavy/Light): 0.6821
[24]
  Median SILAC Ratio (Heavy/Light): 1.73
[25]
  Median SILAC Ratio (Heavy/Light): 1.378
[26]
  Median SILAC Ratio (Heavy/Light): 1.184
[27]
  Median SILAC Ratio (Heavy/Light): 1.96
